Assay results taken from PubChem BioAssay AID624296 (National Center for Advancing Translational Sciences (NCATS), 2012).
Screen size: about 350,000 compounds; about 9,900 (2.8%) were called active. This list was built around the results that the source calls inconclusive (neither active nor inactive); the mix of calls is not that of the screen. Calls follow the shape of the dose curve; as a rule, active = well fitted activation curve with a large enough effect; inconclusive = small, poorly fitted or top-dose-only effect; inactive = no such curve, though single readings can be large or run the other way. Potencies of inconclusive entries are left out as doubtful fits.
Potency is read from the fitted curve at half-maximal effect; tags tell the direction and shape of the fitted curve.

Assay: A quantitative high throughput screen for small molecules that induce DNA re-replication in MCF 10a normal breast cells. Also: nearly all actives have a fitted effect of over 50% in size.
Settings: MCF 10A DNA re-replication, Hoechst nuclear intensity, 48 h; series mostly up to 46.1 µM
For `COC(=O)C1=C(C)N(C)C(=O)NC1c1cccc2ccccc12` (centres undefined), the Potency was inconclusive [activator, single point]. For `Cc1ccc(C(=O)N/C(=C/c2ccccc2)C(=O)NCc2ccncc2)cc1`, the Potency was “inactive”. In the case of `Cc1ccccc1NS(=O)(=O)c1cc(C(=O)N2CCc3ccccc3C2)ccc1C`, the Potency is reported as inconclusive [activator, partial curve, poor fit]. With `O=C1CC(NS(=O)(=O)c2cccs2)CN1c1cccc(F)c1` (centres undefined) the Potency was inconclusive [activator, single point]. In the case of `Cc1cc(C)nc(SCC(=O)Nc2ncc(Cc3cccc(Cl)c3Cl)s2)n1`, the Potency is reported as inconclusive [activator, partial curve, poor fit]. In the case of `CN(Cc1ccccc1)S(=O)(=O)c1ccc(NS(=O)(=O)Cc2ccccc2)cc1`, the Potency is reported as inconclusive [activator, partial curve, poor fit]. With `COc1cc(CN2CCC(C(=O)N3CCN(c4ccccc4F)CC3)CC2)cc(OC)c1OC` the Potency was inconclusive [activator, single point]. For `CC(=O)c1sc(-c2ccc(Cl)cc2)cc1N`, the Potency was inconclusive [activator, single point]. With `O=C1CC(N2CCN(c3nc4ccccc4s3)CC2)C(=O)N1c1cccc(F)c1` (centres undefined) the Potency was “inactive”. With `O=C(COC(=O)c1ccccc1C(=O)c1ccccc1)NCc1ccc(F)cc1` the Potency was “inactive”. For `Cc1cc(OCc2cc(C(=O)N(C)CCCN3CCOCC3)no2)cc(C)c1Cl`, the Potency was inconclusive [activator, partial curve, poor fit]. For `COC(=O)c1ccc(/C=C/C(=O)OCC(=O)Nc2sccc2C(N)=O)cc1`, the Potency was inconclusive [activator, single point]. With `CC(Sc1nnc(C2CC2)n1C)C(=O)Nc1ccc(N2CCOCC2)cc1` (centres undefined) the Potency was “inactive”. In the case of `CCC(C(=O)NCCc1c[nH]c2ccc(C)cc12)c1ccccc1` (centres undefined), the Potency is reported as inconclusive [activator, partial curve, poor fit]. For `Cc1cc(OCC(=O)N2CCC(O)CC2)c2c(C)cc(=O)oc2c1`, the Potency was “inactive”. For `Cc1cccc(NC(=O)C(=O)NNC(=O)c2ccc(C(C)(C)C)cc2)c1`, the Potency was inconclusive [activator, full curve, poor fit]. In the case of `Cc1ccc(S(=O)(=O)N2CCN(c3ccccc3)CC2)cc1`, the Potency is reported as inconclusive [activator, single point]. With `CCCCCNc1c(C(=O)OCC)c(=O)[nH]c2ccccc12` the Potency was “inactive”. In the case of `CCC(CN(C)C)Oc1cc(NCc2ccccc2)c2ncn(C(C)C)c2c1` (centres undefined), the Potency is reported as inconclusive [activator, single point]. With `CCC(O)CNC(=O)NC(=C(Cl)Cl)c1ccc(C)c(F)c1` (centres undefined) the Potency was inconclusive [activator, single point]. In the case of `Cc1nc(Cl)nc(N(C)c2ccccc2)c1[N+](=O)[O-]`, the Potency is reported as inconclusive [activator, single point]. In the case of `CC(C)(C)n1ncc2c(=O)n(CC(=O)NCc3ccco3)cnc21`, the Potency is reported as inconclusive [activator, single point]. For `Cn1/c(=N/NC(=O)c2cccc(OC(F)F)c2)sc2ccccc21`, the Potency was “inactive”. With `CCOc1cc(N2CCOCC2)c(OCC)cc1NC(=O)CN1C(=O)NC2(CCCCC2)C1=O` the Potency was inconclusive [activator, single point]. In the case of `Cc1cccc(NC(=S)NCc2cccs2)c1`, the Potency is reported as “inactive”. In the case of `COc1ccc(C2(C)NC(=O)N(CC(=O)NC(C)c3ccc(CC(C)C)cc3)C2=O)cc1` (centres undefined), the Potency is reported as “inactive”. With `Cc1cccc(-c2nc(CN3CCN(C(=O)C4CCCO4)CC3)cs2)c1` (centres undefined) the Potency was inconclusive [activator, partial curve, poor fit]. For `CCOC(=O)C1(CCc2ccccc2)CCN(Cc2ccc(C(=O)OC)cc2)CC1`, the Potency was inconclusive [activator, single point]. In the case of `Cc1cccc(Cn2c(=O)n(-c3ccc(CC(=O)NCc4ccco4)cc3)c(=O)c3sccc32)c1`, the Potency is reported as inconclusive [activator, single point]. In the case of `COc1ccc(C(=O)/C=C/c2ccccc2)c(O)c1`, the Potency is reported as inconclusive [activator, single point]. With `CCN(CC(=O)NCc1cccs1)C(=O)c1ccc(NS(=O)(=O)c2ccc(C(C)=O)cc2)cc1` the Potency was inconclusive [activator, partial curve, poor fit]. With `CC(C)[C@@H]1CC[C@@H](C)c2c(-c3ccccc3)n[nH]c21` the Potency was inconclusive [activator, single point]. With `CC(C)(C)[C@H]1COC(=O)[C@H](NC(=O)OCC2c3ccccc3-c3ccccc32)C/C=C\C[C@@H](CC(=O)N(CCO)Cc2ccccc2)C(=O)N1` the Potency was inconclusive [activator, partial curve, poor fit]. For `CC(C)COc1ccc(CN=C(N)N=C(N)N)cc1Cl`, the Potency was inconclusive [activator, partial curve, poor fit]. With `Cc1c2c(n3c(nc4ccccc43)c1C#N)N(CCCN(C)C)CC2` the Potency was active: 14.6 µM. For `COc1ccc(CN2CCn3ncc(C(=O)Nc4cc(C)cc(C)c4)c3C2=O)cc1`, the Potency was inconclusive [activator, partial curve]. In the case of `Cc1cccc(COCC(Cc2ccccc2)N2CCN(C(=O)c3ccc(C(F)(F)F)cc3)CCC2=O)c1` (centres undefined), the Potency is reported as inconclusive [activator, partial curve, poor fit]. With `Fc1cc(F)c(C2SCCN2C(=S)Nc2cccc(C(F)(F)F)c2)c(F)c1` (centres undefined) the Potency was inconclusive [activator, partial curve, poor fit]. For `CN(C)c1ccc(/C=N\NC(=O)c2cccc3cc[nH]c23)cc1`, the Potency was inconclusive [activator, single point]. For `O=C(COC(=O)c1ccc(O)cc1O)Nc1ccc2ccccc2c1`, the Potency was inconclusive [activator, single point]. In the case of `COC(=O)c1ccc2c(c1)C(NC(C)=O)CCc1cc(OC)c(OC)c(OC)c1-2` (centres undefined), the Potency is reported as active: 0.116 µM. With `O=C(NCc1ccc2c(c1)OCO2)c1ccc2c(=O)n(C3CCCC3)c(=O)[nH]c2c1` the Potency was inconclusive [activator, full curve]. In the case of `Cc1ccc(NC(=S)Nc2cc(C(=O)O)ccc2N2CC3CC(C2)c2cccc(=O)n2C3)cc1C` (centres undefined), the Potency is reported as inconclusive [activator, single point]. In the case of `COC(=O)c1ccc(C(=O)OC)c(NC(=O)CSc2nnc(-c3ccccc3Cl)o2)c1`, the Potency is reported as inconclusive [activator, full curve, poor fit]. In the case of `C#CCOCCOCCOCCNc1nc(N2CCN(C(=O)CCCCCCCCCCNC(=O)[C@H](CCCCN)n3cc(C[C@@H](C)CC)nn3)CC2)nc(N2CCN(C(=O)CCCCCCCCCCNC(=O)[C@@H]([C@H](C)O)n3cc(C)nn3)CC2)n1`, the Potency is reported as active: 11.6 µM. In the case of `Oc1ccc2ccccc2c1C=Nc1ccc(N2CCOCC2)cc1`, the Potency is reported as inconclusive [activator, partial curve, poor fit]. With `Cc1ccc([N+](=O)[O-])cc1NC(=S)NCCc1ccccc1` the Potency was “inactive”. With `Cc1ccc(C(=O)NCCN2C3=NC[C@H](C)N3C[C@H]2Cc2ccc(O)cc2)cc1Br` the Potency was “inactive”. With `CCn1c(CN(C)c2ccccc2)nc2ccccc21` the Potency was inconclusive [activator, full curve]. For `Cc1cccc(NC(=O)c2cccc([N+](=O)[O-])c2O)c1C`, the Potency was inconclusive [activator, partial curve, poor fit]. For `O=C(Cn1cc2c(n1)CCCC2)N1CCCC1`, the Potency was “inactive”. With `CCC(CC)NC(=O)c1ccc(Cl)cc1` the Potency was “inactive”. For `Cc1onc(-c2ccccc2)c1C(=O)NNC(=S)NC(=O)c1ccc2c(c1)OCO2`, the Potency was “inactive”. With `CCCc1ccc(-c2csc(NC(=O)C3=COCCO3)n2)cc1` the Potency was inconclusive [activator, single point]. In the case of `Cc1ccc(CCc2nnc(SCC(=O)Nc3cc(Cl)ccc3Cl)n2-c2ccccc2)o1`, the Potency is reported as inconclusive [activator, single point]. With `Cc1[nH]c(N=Nc2ccccc2)nc1N=Nc1ccccc1` the Potency was inconclusive [activator, partial curve, poor fit]. With `NC(N)=NC(=O)Cc1c(Cl)cccc1Cl` the Potency was inconclusive [activator, partial curve, poor fit]. In the case of `Cc1ccc(S(=O)(=O)N(Cc2cccc(C(F)(F)F)c2)C(=O)N2CCN(C)CC2)cc1`, the Potency is reported as inconclusive [activator, partial curve, poor fit]. With `CCOc1ccc2nc(SC3CC(=O)N(c4ccccc4)C3=O)sc2c1` (centres undefined) the Potency was inconclusive [activator, single point]. With `CC(NC(=O)Cc1ccc(S(=O)(=O)N2CCOCC2)s1)c1ccc(Cl)cc1Cl` (centres undefined) the Potency was inconclusive [activator, partial curve, poor fit]. With `Cc1ccc(-c2csc3nc[nH]c(=S)c23)cc1` the Potency was inconclusive [activator, partial curve, poor fit]. In the case of `CN(C)C=NC(=O)c1[nH]c2ccc(Cl)cc2c1-c1ccccc1`, the Potency is reported as inconclusive [activator, single point]. In the case of `COc1cccc(Oc2ccc(C(F)(F)F)cc2N)c1`, the Potency is reported as “inactive”. With `Cc1ccc(NS(=O)(=O)c2cc(C(=O)Nc3cccnc3)ccc2C)cc1` the Potency was “inactive”.
